In US20050239864A1, “Novel tumor-selective chemotherapeutic agents” (priority 2004, published 2005):
Where two headings read alike, the source gives them in different places.

How the values were obtained:
colon 38 adenocarcinoma [1] = assay: Mice bearing colon 38 adenocarcinoma; type: in vivo
L1210 leukemia cells = assay: 3H-thymidine incorporation proliferation assay in vitro; type: cell-based; details: for IC50: 48-h proliferation assay, 3H-thymidine uptake, mean of two experiments; for potency against L1210 leukemia cells: in vitro
Procedure: (§1) The antitumor activity of the compounds was evaluated in vitro against L1210 leukemia and human SKOV-3 ovarian cancer cells (Table 4). L1210 leukemia cells and SKOV-3 (2.5×10^4 cells/well) in RPMI-1640 medium supplemented with 10% FCS medium were seeded in a 96-well plate. Drugs (10 uL) at increasing concentrations were added to each well, and the total volume was adjusted to 0.1 mL/well using the same medium. For L1210 leukemia cells, the plate was incubated for 24 h at 37° C. followed by addition of 10 uL of ^3H-thymidine (20 uCi/mL). For SKOV-3 ovarian cancer cells, the plate was incubated for 48 h at 37° C. followed by addition of 10 uL of ^3H-thymidine (20 uCi/mL). The plate was incubated for another 24 h. The cells were harvested, and radioactivity was counted using the Packard Matrix 96 beta counter. The results were expressed as the minimal concentration that inhibits ^3H-thymidine incorporation by 50% (IC50). Percent growth inhibition was calculated as follows: [(total cpm−experimental cpm)/total cpm]×100.

[2] = test system: SKOV-3 human ovarian cancer cells; assay: as above; type: cell-based; details: for IC50: 72-h proliferation assay, 3H-thymidine uptake, mean of two experiments; for potency against SKOV-3 human ovarian cancer cells: in vitro
Procedure: as §1

L1210 leukemia = L1210 leukemia tumor model, survival; type: in vivo, mice; details: for % ILS: BDF1 mice, 10^5 cells i.p. day 0
[3] = Mice bearing colon 38 adenocarcinoma; type: in vivo; details: BDF1, mouse, in vivo, intravenous; ×2 doses, mice bearing colon 38; read-out: maximal tolerated dose (MTD)
JC breast adenocarcinoma = assay: Mice bearing JC breast adenocarcinoma; type: in vivo
Procedure: JC is an epithelial-like cell line established in 1983 from a spontaneous primary adenocarcinoma along the milk line (Capone et al., Cancer Immuno. Immunother. 1987, 25, 93-9). It produces tumors with papillary adenocarcinoma morphology in BALB/c mice. […] At the lowest dose of 0.16 mg/kg, (+)-YW-391 (LCK: 1.5) killed 10-times more tumor cells than Dox at 8 mg/kg (LCK: 0.78). (+)-YW-391 has the potential to be a powerful new treatment for human breast cancer.

Lewis lung carcinoma = assay: Mice bearing Lewis lung carcinoma; type: in vivo; details: 0.2 mg/kg i.v. days 1, 5, 12; listed as YW-391
[4] = test system: SKOV-3 human ovarian cancer; assay: SKOV-3 human ovarian cancer xenograft in nude mice; type: in vivo
Text: Ovarian cancer is one of the most difficult to treat human cancers, and very few drugs are effective. YW-391 had significant activity in SKOV-3 human ovarian cancer xenograft (FIG. 8 and Table 9).

colon 38 adenocarcinoma [5] = details: cited from earlier work
various tumor models = details: cited from earlier work
liver cancer = details: one patient, 40 microg/m^2 for one cycle (days 1-5); cited from earlier work
[6] = human, in vivo; cited from earlier work
[7] = test system: MDA-MB 435 human breast cancer; details: Dox-MH at optimal dose (3×23 mg/kg); cited from earlier work
[8] = free MTX in human, comparison value; cited from earlier work
[9] = 0.05 mg/kg days 2, 9, from Li et al. 1991
[10] = 0.005 mg/kg q4d × 3, from Carter et al. 1996
[11] = 0.2 mg/kg q4d × 3, from Li et al. 1991

O=c1[nH]cc(F)c(=O)[nH]1 [5-FU, 5-Fluorouracil]
% Cured mice (colon 38 adenocarcinoma [1]; 70 mg/kg q4d × 3 i.v.): 0%
% Maximum weight loss (colon 38 adenocarcinoma [1]; 70 mg/kg q4d × 3 i.v.): −7%
% Tumor growth inhibition (colon 38 adenocarcinoma [1]; 70 mg/kg q4d × 3 i.v.): 95%
Log10 cell kill (LCK) (colon 38 adenocarcinoma [1]; 70 mg/kg q4d × 3 i.v.): 1.1
weight loss at which the mice begin to die (colon 38 adenocarcinoma [1]; mice bearing colon 38): −7%

O=C(Nc1ccc2[nH]c(C(=O)N3C[C@@H](CCl)c4c3cc(O)c3ccccc43)cc2c1)c1cc2cc(F)ccc2[nH]1 [(+)-YW-367]
IC50 (L1210 leukemia cells): 0.17 nM
IC50 [2]: 14 nM

O=C(CCCCCN1C(=O)C=CC1=O)Oc1cc2c(c3ccccc13)[C@H](CCl)CN2C(=O)c1cc2cc(NC(=O)c3cc4cc(F)ccc4[nH]3)ccc2[nH]1 [(+)-YW-391]
IC50 (L1210 leukemia cells; Mus musculus, L1210): 25 nM
potency against L1210 leukemia cells (L1210 leukemia cells): very potent
IC50 ([2]; Homo sapiens, SK-OV-3): 24 nM
potency against SKOV-3 human ovarian cancer cells [2]: very potent
% ILS (L1210 leukemia; 0.2 mg/kg i.v. on day 1): 107%
% ILS (L1210 leukemia; 0.4 mg/kg i.v. on day 1): 133%
active dose range (8-fold) (L1210 leukemia; L1210 leukemia model, i.v.): 0.05 to 0.4 mg/kg
MTD [3]: 0.3 mg/kg
times more tumor cells killed than 5-FU (colon 38 adenocarcinoma [1]; 0.15 mg/kg (LCK: 2.3) versus 5-FU 70 mg/kg (LCK: 1.1)): 10
% Cured mice (colon 38 adenocarcinoma [1]; 0.15 mg/kg q4d × 3 i.v.): 29%
% Maximum weight loss (colon 38 adenocarcinoma [1]; 0.15 mg/kg q4d × 3 i.v.): −10%
% Tumor growth inhibition (colon 38 adenocarcinoma [1]; 0.15 mg/kg q4d × 3 i.v.): 99%
Log10 cell kill (LCK) (colon 38 adenocarcinoma [1]; 0.15 mg/kg q4d × 3 i.v.): 2.3
% Tumor growth inhibition (colon 38 adenocarcinoma [1]; 0.3 mg/kg q4d × 2 i.v.): 99%
Log10 cell kill (LCK) (colon 38 adenocarcinoma [1]; 0.3 mg/kg q4d × 2 i.v.): 2.6
% Cured mice (colon 38 adenocarcinoma [1]; 0.3 mg/kg q4d × 2 i.v., tumor-free on day 60): 50%
times more tumor cells killed than Dox (JC breast adenocarcinoma; 0.16 mg/kg (LCK: 1.5) versus Dox 8 mg/kg (LCK: 0.78)): 10
% Maximum weight loss (JC breast adenocarcinoma; 0.16 mg/kg q4d × 3 i.v.): −19%
% Tumor growth inhibition (JC breast adenocarcinoma; 0.16 mg/kg q4d × 3 i.v.): 93%
Log10 cell kill (LCK) (JC breast adenocarcinoma; 0.16 mg/kg q4d × 3 i.v.): 1.5
% Maximum weight loss (JC breast adenocarcinoma; 0.20 mg/kg q4d × 3 i.v.): −23%
Log10 cell kill (LCK) (JC breast adenocarcinoma; 0.20 mg/kg q4d × 3 i.v.): 1.9
% Tumor growth inhibition (Lewis lung carcinoma): 84%
% Tumor growth inhibition ([4]; 0.13 mg/kg iv. days 15, 24, 33): 52%

O=C(CCCCCN1C(=O)C=CC1=O)Oc1cc2c(c3ccccc13)[C@H](CCl)CN2C(=O)c1cc2cc(NC(=O)c3cc4ccccc4o3)ccc2[nH]1 [(+)-YW-392]
potency against L1210 leukemia cells (L1210 leukemia cells): very potent
potency against SKOV-3 human ovarian cancer cells [2]: very potent
% Cured mice (colon 38 adenocarcinoma [1]; 0.15 mg/kg q4d × 3 i.v.): 0%
% Maximum weight loss (colon 38 adenocarcinoma [1]; 0.15 mg/kg q4d × 3 i.v.): −5%
% Tumor growth inhibition (colon 38 adenocarcinoma [1]; 0.15 mg/kg q4d × 3 i.v.): 84%
% Cured mice (colon 38 adenocarcinoma [1]; 0.3 mg/kg q4d × 3 i.v.): 0%
% Maximum weight loss (colon 38 adenocarcinoma [1]; 0.3 mg/kg q4d × 3 i.v.): −7%
% Tumor growth inhibition (colon 38 adenocarcinoma [1]; 0.3 mg/kg q4d × 3 i.v.): 90%
Log10 cell kill (LCK) (colon 38 adenocarcinoma [1]; 0.3 mg/kg q4d × 3 i.v.): 1.7

Cc1c[nH]c2c1[C@@]13C[C@@H]1CN(C(=O)c1cc4cc(NC(=O)c5cc6ccccc6o5)ccc4[nH]1)C3=CC2=O [Adozelesin]
% Cured mice (colon 38 adenocarcinoma [5]; [9]): 0%
% Tumor growth inhibition (colon 38 adenocarcinoma [5]; [9]): 93%
Log10 cell kill (LCK) (colon 38 adenocarcinoma [5]; [9]): 0.65
antitumor activity in vivo (various tumor models; L1210 leukemia, B16 melanoma, M5076 sarcoma, colon 38, colon CX-1, lung LX-1, pancreas O2, ovarian 2780 in mice): very active

Cc1c[nH]c2c(O)cc3c(c12)[C@H](CCl)CN3C(=O)c1cc2cc(NC(=O)Nc3ccc4[nH]c(C(=O)N5C[C@@H](CCl)c6c5cc(O)c5[nH]cc(C)c65)cc4c3)ccc2[nH]1 [Bizelesin]
% Cured mice (colon 38 adenocarcinoma [5]; [10]): 0%
Log10 cell kill (LCK) (colon 38 adenocarcinoma [5]; [10]): 0.70
antitumor activity in vivo (various tumor models; P388, L1210, B16, UACC-62, LOX IMVI, SK-MEL-3, CAKI-1, LX-1, Lewis lung, HT-29, colon 38, pancreas 02, MCF7, MX-1): effective

CCN(CC)c1ccc2cc(C(=O)Nc3ccc4[nH]c(C(=O)N5C[C@@H](CCl)c6c5cc(OC(=O)Nc5ccccc5)c5[nH]cc(C)c65)cc4c3)oc2c1 [Carzelesin]
% Cured mice (colon 38 adenocarcinoma [5]; [11]): 0%
% Tumor growth inhibition (colon 38 adenocarcinoma [5]; [11]): 92%
duration of partial remission (liver cancer): 8 months
regression of primary liver cancer (liver cancer): 50%
antitumor activity in vivo (various tumor models; several colon adenocarcinomas and pediatric rhabdomyosarcomas): effective
time plasma concentration at 5 ng/mL [6]: 15 min
time plasma concentration of 1 ng/mL maintained [6]: approximately 1 h

N.N.[Cl][Pt][Cl] [Cisplatin]
% Cured mice (colon 38 adenocarcinoma [1]; 2 mg/kg q4d × 3 i.v.): 0%
% Maximum weight loss (colon 38 adenocarcinoma [1]; 2 mg/kg q4d × 3 i.v.): −8%
% Tumor growth inhibition (colon 38 adenocarcinoma [1]; 2 mg/kg q4d × 3 i.v.): 42%
Log10 cell kill (LCK) (colon 38 adenocarcinoma [1]; 2 mg/kg q4d × 3 i.v.): 0.30
% Cured mice (colon 38 adenocarcinoma [1]; 4 mg/kg day1 i.v.): 0%
% Maximum weight loss (colon 38 adenocarcinoma [1]; 4 mg/kg day1 i.v.): −15%
% Tumor growth inhibition (colon 38 adenocarcinoma [1]; 4 mg/kg day1 i.v.): 66%
Log10 cell kill (LCK) (colon 38 adenocarcinoma [1]; 4 mg/kg day1 i.v.): 0.48

COc1cccc2c1C(=O)c1c(O)c3c(c(O)c1C2=O)C[C@@](O)(C(=O)CO)C[C@@H]3O[C@H]1C[C@H](N)[C@H](O)[C@H](C)O1 [Doxorubicin, doxorubicin]
antitumor response [7]: modest antitumor activity

COC(=O)c1c(C)[nH]c2c(OC(=O)N3CCN(C)CC3)cc3c(c12)[C@H](CBr)CN3C(=O)c1cc2cc(OC)c(OC)c(OC)c2[nH]1 [KW-2189]
antitumor activity in vivo (various tumor models; P388, L1210, B16, colon 26, colon 38, LC-6 lung, ST-4, ST-40 stomach, LI-7 liver, PAN-02 pancreas, MX-1 breast): active

CN(Cc1cnc2nc(N)nc(N)c2n1)c1ccc(C(=O)N[C@@H](CCC(=O)O)C(=O)O)cc1 [MTX, methotrexate]
half-life [8]: approximately 7 h

CC(=O)O[C@H]1C(=O)[C@@]2(C)[C@H]([C@H](OC(=O)c3ccccc3)[C@]3(O)C[C@H](OC(=O)[C@H](O)[C@@H](NC(=O)c4ccccc4)c4ccccc4)C(C)=C1C3(C)C)[C@]1(OC(C)=O)CO[C@@H]1C[C@@H]2O [Paclitaxel]
% Tumor growth inhibition ([4]; 25 mg/kg ip. days 15, 24, 33): 22%
